{
  "source": "PubChem BioAssay AID1346428",
  "about": "(National Center for Advancing Translational Sciences (NCATS), 2018)",
  "note": "Where “and” joins values, the source holds several entries; their conditions need not be identical. Equal entries are not always repeated. Among all 48,000 compounds or so, about 1,200 (2.5%) were called active. Roughly 2% stayed inconclusive and do not appear here.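 How the source made its calls: active means activation of at least 60% and not above a set upper limit (about 1 call in 100 departs from these limits); inconclusive means activation of 40% to 60%, or above that upper limit; inactive means activation under 40%.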 The list shows a part of the results.",
  "data": [
    {"biological_target": "Probable G-protein coupled receptor 32 (Homo sapiens) (UniProt O75388)", "sequence (O75388 whole entry, looked up)": "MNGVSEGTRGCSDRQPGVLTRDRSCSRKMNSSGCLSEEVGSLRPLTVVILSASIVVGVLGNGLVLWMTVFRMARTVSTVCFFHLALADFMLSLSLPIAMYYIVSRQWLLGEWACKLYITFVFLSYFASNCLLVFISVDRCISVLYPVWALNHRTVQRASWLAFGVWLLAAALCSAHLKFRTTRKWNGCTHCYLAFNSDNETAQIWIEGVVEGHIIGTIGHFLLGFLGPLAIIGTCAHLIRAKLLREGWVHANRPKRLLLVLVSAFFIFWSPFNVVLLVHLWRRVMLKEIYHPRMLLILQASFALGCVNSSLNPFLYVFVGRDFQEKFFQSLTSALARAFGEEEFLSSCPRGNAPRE", "experiment": "qHTS for Agonists of Human Resolvin D1 Receptor DRV1; further: 0% is about no effect", "details": "CHO-K1 GPR32 beta-arrestin PathHunter luminescence, 90 min; at 76.9 µM; stronger effect = higher value; zero percent set by DMSO-only wells", "outline": "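Cells are plated overnight, treated with compounds in DMSO for 90 minutes at 37 °C, and developed with PathHunter detection reagent for 1 hour before luminescence is read; signal reflects beta-arrestin binding to GPR32 in engineered CHO-K1 cells.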", "values": [
      {"smiles": "Cc1ccc(NC(=O)c2nn(C)c3c2CS(=O)(=O)c2ccccc2-3)c(Cl)c1", "activation": "inactive: -9.21%"},
      {"smiles": "COc1ccc(-c2nc3c(c(SCC(=O)Nc4ccc(C(=O)O)cc4)n2)Cc2ccccc2O3)cc1", "activation": "inactive: -8.47%"},
      {"smiles": "CCOC(=O)Cc1ccc(NC(=O)Nc2cccc(OCc3cc(=O)n4cc(C)ccc4n3)c2)cc1", "activation": "inactive: -7.62%"},
      {"smiles": "O=C(CCCCCn1c(=O)c2sccc2n(CC(=O)Nc2cccc(Cl)c2)c1=O)NCc1ccc2c(c1)OCO2", "activation": "inactive: -12.8%"},
      {"smiles": "Oc1c(C(c2ccccc2)N2CCC3(CC2)OCCO3)sc2nc(-c3ccco3)nn12", "note": "(stereo unspecified)", "activation": "inactive: -13.6%"},
      {"smiles": "Cc1nc(N2CCOCC2)c2c(C(=O)NCc3cccc(Cl)c3)c(C)oc2n1", "activation": "inactive: -12.9%"},
      {"smiles": "COc1cccc(C(=O)NC2(C(F)(F)F)C(=O)Nc3c2c(=O)[nH]c(=O)n3-c2ccc(C)cc2)c1", "note": "(stereo unspecified)", "activation": "inactive: -5.74%"},
      {"smiles": "CCc1c(C)sc2c1CCN(C(=O)Nc1cc(OC)c(OC)c(OC)c1)C2c1ccccc1", "note": "(stereo unspecified)", "activation": "inactive: 2.98%"},
      {"smiles": "CCc1cccc(NC(=O)CSc2ncc3c(n2)-c2ccc(Cl)cc2N(Cc2ccccc2)S3(=O)=O)c1", "activation": "inactive: 1.99%"},
      {"smiles": "CCCCOc1ccc(CNC(=O)CN2CCSc3ccccc32)cc1", "activation": "inactive: -39.1%"},
      {"smiles": "Cc1ccc(CCNC(=O)c2nn(C)c3c2CSc2ccccc2-3)cc1", "activation": "inactive: -1.95%"},
      {"smiles": "O=S(=O)(c1ccc(Br)cc1)c1nc(-c2ccco2)oc1SCc1ccccc1Cl", "activation": "inactive: -17.6%"},
      {"smiles": "NC/C=C\\C(=O)O", "activation": "inactive: -0.562%"},
      {"smiles": "CCC(C(=O)N1CCN(c2cccc(C)c2C)CC1)n1nc(C)c2sc3ccccc3c2c1=O", "note": "(stereo unspecified)", "activation": "inactive: -17.7%"},
      {"smiles": "CCCNC(=O)C1CCC(Cn2c(=O)c3sccc3n(Cc3cccc(OC)c3)c2=O)CC1", "note": "(stereo unspecified)", "activation": "inactive: -1.63%"},
      {"smiles": "CCn1nnc2cc(C(=O)Nc3cccc(Cl)c3)ccc21", "activation": "inactive: -6.66%"},
      {"smiles": "Cc1nc2nc(NC(=O)c3cccc(Cl)c3)[nH]n2c(=O)c1Cc1ccccc1", "activation": "inactive: 30.8%"},
      {"smiles": "COc1cccc(CNC(=O)CCn2c(=O)c3cccn3c3ccc(F)cc32)c1OC", "activation": "inactive: -12.3%"},
      {"smiles": "COc1ccc(-n2nc(C(=O)N(C)c3cccc(C(F)(F)F)c3)c3c4ccccc4n(C)c3c2=O)cc1", "activation": "inactive: -16.4%"},
      {"smiles": "Cc1ccc(NC(=O)CCn2c(=O)c3cccn3c3ccccc32)c(Cl)c1", "activation": "inactive: -17.2%"},
      {"smiles": "COc1ccc(CCNC(=O)CCc2c(C)nc3c(c(C)nn3-c3ccc(C)c(C)c3)c2C)c(OC)c1OC", "activation": "inactive: 22.3%"},
      {"smiles": "CCOc1ccc(-n2c(-c3ccc(C)cc3)nc3c(cnn3-c3ccccc3)c2=O)cc1", "activation": "inactive: -1.15%"},
      {"smiles": "CCOC(=O)C1CCC(CN(Cc2ccccc2)S(=O)(=O)c2ccc(Cl)cc2)CC1", "note": "(stereo unspecified)", "activation": "inactive: -25.6%"},
      {"smiles": "COc1ccc(CCNC(=O)Cn2cc(C(=O)c3ccccc3)c(=O)c3ccc(C)nc32)cc1OC", "activation": "inactive: -5.87%"},
      {"smiles": "CCOC(=O)c1c(S(=O)(=O)N2CCC(C(=O)Nc3ccccc3OC)CC2)c(C)n(CC)c1C", "activation": "inactive: -5.93%"},
      {"smiles": "Cc1cc(C)c(Cn2c3ccccc3c3cnn(CC(=O)N4CCCCC4)c(=O)c32)c(C)c1", "activation": "inactive: -7.91%"},
      {"smiles": "Cc1ccccc1C(=O)Nc1ccccc1C(=O)OCc1cc(=O)n2ccsc2n1", "activation": "inactive: 10.2%"},
      {"smiles": "CN1C(=O)CC(=O)N(C)c2cc(S(=O)(=O)N(C)Cc3ccccc3)ccc21", "activation": "inactive: 6.77%"},
      {"smiles": "CCn1cc(C(=O)NCCc2ccc(C)cc2)c(=O)c2cc(S(=O)(=O)N(C)C)ccc21", "activation": "inactive: -6.63%"},
      {"smiles": "CCOc1ccc(OCC)c(Nc2nc3ccccc3c3nnc(C)n23)c1", "activation": "inactive: -8.58%"},
      {"smiles": "Cc1ccc2c(c1)c1c(c(=O)n(-c3ccccc3)c(=O)n1CC(=O)N1CCCC1)n2C", "activation": "inactive: -16%"},
      {"smiles": "COc1cccc(N2CC(NC(=O)Cc3cccs3)CC2=O)c1", "note": "(stereo unspecified)", "activation": "inactive: -4.11%"},
      {"smiles": "Cc1c(Cl)cccc1NS(=O)(=O)c1ccc2[nH]cc(C(=O)NC3CCCC3)c(=O)c2c1", "activation": "active: 101%"},
      {"smiles": "CCCCN(CCCC)CCNC(=O)c1cn(C)c2ccc(S(=O)(=O)N3CCOCC3)cc2c1=O", "activation": "inactive: -4.54%"},
      {"smiles": "CC(=O)c1cccc(NS(=O)(=O)c2ccc3[nH]c4c(c3c2)CCCCCC4)c1", "activation": "active: 100%"},
      {"smiles": "Cc1ccc(-n2ncc(C(=O)NCCN3CCN(C)CC3)c2C2CCN(C(=O)OC(C)(C)C)CC2)c(C)c1", "activation": "inactive: -6.28%"},
      {"smiles": "Cc1ccc(S(=O)(=O)c2nc(-c3cccs3)oc2N2CCCCC2)cc1", "activation": "inactive: -2.2%"},
      {"smiles": "COc1ccc2c(c1)c1c(c(=O)n(-c3ccc(OC)c(OC)c3)c(=O)n1Cc1ccccc1C)n2C", "activation": "inactive: -12.7%"},
      {"smiles": "COc1cccc(CN2CCc3nc(Nc4ccc5c(c4)OCCO5)ncc3C2)c1", "activation": "inactive: -30.9%"},
      {"smiles": "Cc1ccc2nc(N(Cc3cccnc3)C(=O)Cc3ccccc3)sc2c1", "activation": "inactive: -26.7%"},
      {"smiles": "Cc1ccccc1Cn1c(SCc2ccc(C(=O)NC(C)c3ccccc3)cc2)nc2ccncc21", "note": "(stereo unspecified)", "activation": "inactive: 7.41%"},
      {"smiles": "CCc1ccccc1NC(=O)CCn1nc(C)c2c(C)n(-c3ccccc3)nc2c1=O", "activation": "inactive: -6.21%"},
      {"smiles": "CCOC(=O)c1ccccc1NC(=O)Cn1ncc2c([nH]c3ccccc32)c1=O", "activation": "inactive: 22%"},
      {"smiles": "COc1cccc(C2CC(=O)Nc3cc4c(cc32)OCCO4)c1OC", "note": "(stereo unspecified)", "activation": "inactive: -8.96%"},
      {"smiles": "COc1ccc(C(=O)CN2CCN(S(=O)(=O)c3ccc(C(C)C)cc3)CC2)cc1", "activation": "inactive: 19.8%"},
      {"smiles": "O=C(NCCc1cccs1)c1ccc(Cn2c(SCc3ccc(F)cc3)nc3cccnc32)cc1", "activation": "inactive: -19.5%"},
      {"smiles": "CC1CCN(c2ncnc3c2cnn3-c2ccc(F)cc2)CC1", "activation": "inactive: 26.9%"},
      {"smiles": "CCc1ccc(-n2c(=O)c3c4c(sc3n(CC(=O)NCCCOC)c2=O)CCCC4)cc1", "activation": "inactive: -15.7%"},
      {"smiles": "CCc1ccc(-c2nc(CN3CCC(C(=O)NCCc4ccc(Cl)cc4)CC3)c(C)o2)cc1", "activation": "inactive: -2.86%"},
      {"smiles": "COc1cccc(NC(=O)c2sc3nc(C)c(C(=O)Nc4ccc(C)cc4C)c(-c4ccccc4Cl)c3c2N)c1", "activation": "inactive: -9.83%"},
      {"smiles": "NC(N)=NC(=O)Cc1c(Cl)cccc1Cl", "activation": "inactive: -3.06% and inactive: 0.0886%"},
      {"smiles": "Cc1ccc(CCNC(=O)c2ccc(NC(=O)N3CC(C)Sc4ccccc43)cc2)cc1", "note": "(stereo unspecified)", "activation": "inactive: -23.8%"},
      {"smiles": "COC(=O)C1=C(c2ccccc2)c2ccccc2S(=O)(=O)N1CC(=O)Nc1cccc(C(C)=O)c1", "activation": "inactive: -2.21%"},
      {"smiles": "CC1(C)O[C@H]2CC(=O)OC[C@]23[C@H]2CC[C@@]4(C)[C@H](c5ccoc5)OC(=O)[C@H]5O[C@]54[C@]2(C)C(=O)C[C@@H]13", "activation": "inactive: -3.29%"},
      {"smiles": "CCCCN(C)CCNC(=O)c1ccc2c(=O)n(CCc3ccccc3)c(=O)[nH]c2c1", "activation": "inactive: 14.6%"},
      {"smiles": "CCc1ccc(NC(=O)C(NS(=O)(=O)c2cccs2)C(C)C)cc1", "note": "(stereo unspecified)", "activation": "inactive: 4.56%"},
      {"smiles": "Cn1c(=O)c2c(-c3ccccc3)n3c(c2n(C)c1=O)C(c1ccccc1[N+](=O)[O-])Nc1ccccc1-3", "note": "(stereo unspecified)", "activation": "inactive: -1.01%"},
      {"smiles": "Cn1c(=O)c2c(c3ccccc31)OC(=O)CC2c1ccc(C(F)(F)F)cc1", "note": "(stereo unspecified)", "activation": "inactive: 4.1%"},
      {"smiles": "CCCCCCC/C=C\\CCCCCCCCC(=O)O", "activation": "inactive: -5.06%"},
      {"smiles": "O=C(Nc1ccc2oc(-c3cccc4c(Br)cccc34)nc2c1)c1ccc(F)cc1", "activation": "inactive: 5.61%"},
      {"smiles": "CCCN(Cc1cccs1)C(=O)Nc1cc(Cl)c(OC)cc1OC", "activation": "inactive: -16%"},
      {"smiles": "CCCN(CCC)CCCNC(=O)Cn1cnc2sc(C)c(S(=O)(=O)N3CCCCC3)c2c1=O", "activation": "inactive: -2.51%"},
      {"smiles": "O=C(c1ccc2c(c1)N(Cc1ccccc1F)C(=O)c1ccccc1S2(=O)=O)N1CCOCC1", "activation": "inactive: -10.3%"},
      {"smiles": "CCOC(=O)c1oc2ccc(S(=O)(=O)n3nc(-c4ccccc4OC)cc3N)cc2c1C", "activation": "inactive: 9.98%"},
      {"smiles": "O=C(COC(=O)c1cc(-c2cccs2)nc2ccccc12)c1ccccc1", "activation": "inactive: -2.18%"},
      {"smiles": "Cc1ccc(-c2nc3nc(C)cc(N4CCN(c5cc(Cl)ccc5C)CC4)n3n2)cc1", "activation": "inactive: 0.294%"},
      {"smiles": "CCOCCCNC(=O)c1ccc2nc(CCc3ccccc3)oc2c1", "activation": "inactive: -19.4%"},
      {"smiles": "COc1ccc(C2=NC3(CCCCC3)N(CC(=O)Nc3ccc(C(C)C)cc3)C2=O)cc1", "activation": "inactive: -24.8%"},
      {"smiles": "COc1ccc(-c2cc(C(=O)Oc3ccccc3)c3cc(C)ccc3n2)cc1", "activation": "inactive: 6.06%"},
      {"smiles": "CCn1c(=O)n(-c2ccc(C)c(F)c2)c(=O)c2sc3ccccc3c21", "activation": "inactive: 16.7%"},
      {"smiles": "COc1cccc(-n2c(SCC(=O)Nc3cc(C)ccc3C)nc3c(oc4ccccc43)c2=O)c1", "activation": "inactive: -0.997%"},
      {"smiles": "Cn1nc(C(=O)NCc2cccc(Cl)c2)c2c1-c1ccccc1S(=O)(=O)C2", "activation": "inactive: -2.56%"},
      {"smiles": "Cc1cc(C)cc(NC(=O)Cn2c(=O)n(-c3cc(C)cc(C)c3)c(=O)c3oc4ccccc4c32)c1", "activation": "inactive: -13.4%"},
      {"smiles": "CCOC(=O)Cn1c(=O)n(C2CCCCC2)c2nc(-c3ccc(CC)cc3)nc(C(N)=O)c21", "activation": "inactive: -9.19%"},
      {"smiles": "Cc1nc2ccccc2n2c(-c3ccccc3)c3c(=O)n(C)c(=O)n(C)c3c12", "activation": "inactive: 1.43%"},
      {"smiles": "COc1ccc(-n2ccnc2SCC(=O)Nc2nnc(C)s2)cc1", "activation": "inactive: -14.9%"},
      {"smiles": "COc1cc(CN2CCc3nc(N4CCN(c5ncccn5)CC4)ncc3C2)cc(OC)c1OC", "activation": "inactive: 15.7%"},
      {"smiles": "Cc1ccccc1N(C)S(=O)(=O)c1nnc(NC(=O)c2ccccc2F)s1", "activation": "inactive: 20%"},
      {"smiles": "Cc1ccc(NC(=O)C(=O)NCCc2sc(-c3ccc(Cl)cc3)nc2C)cc1C", "activation": "inactive: -4.8%"},
      {"smiles": "COc1cccc(Cn2c(CNC(=O)CCc3ccccc3)nc3cccnc32)c1", "activation": "inactive: -29.7%"},
      {"smiles": "COc1cccc(CNC(=O)CCn2nc(C)c3c(C)n(-c4ccccc4)nc3c2=O)c1", "activation": "inactive: -1.98%"}
    ]}
  ]
}
